Source: the supplement of paper PMC3334620
Whole data set: some 33,000 sequences, median “E-score (-0.5 to 0.5)” near -0.012, cut for the highest 2% near 0.27. Some of the results follow.

biological target: T1, Vhr1 (UniProt P40522); experiment: PBM E-score (8-mer binding enrichment) (E-score (-0.5 to 0.5)); higher = stronger / more preferred TF binding; most listed sequences are background and not binding sites; conditions: protein concentration: 200 nM; construct: GST-full length
T1 sequence: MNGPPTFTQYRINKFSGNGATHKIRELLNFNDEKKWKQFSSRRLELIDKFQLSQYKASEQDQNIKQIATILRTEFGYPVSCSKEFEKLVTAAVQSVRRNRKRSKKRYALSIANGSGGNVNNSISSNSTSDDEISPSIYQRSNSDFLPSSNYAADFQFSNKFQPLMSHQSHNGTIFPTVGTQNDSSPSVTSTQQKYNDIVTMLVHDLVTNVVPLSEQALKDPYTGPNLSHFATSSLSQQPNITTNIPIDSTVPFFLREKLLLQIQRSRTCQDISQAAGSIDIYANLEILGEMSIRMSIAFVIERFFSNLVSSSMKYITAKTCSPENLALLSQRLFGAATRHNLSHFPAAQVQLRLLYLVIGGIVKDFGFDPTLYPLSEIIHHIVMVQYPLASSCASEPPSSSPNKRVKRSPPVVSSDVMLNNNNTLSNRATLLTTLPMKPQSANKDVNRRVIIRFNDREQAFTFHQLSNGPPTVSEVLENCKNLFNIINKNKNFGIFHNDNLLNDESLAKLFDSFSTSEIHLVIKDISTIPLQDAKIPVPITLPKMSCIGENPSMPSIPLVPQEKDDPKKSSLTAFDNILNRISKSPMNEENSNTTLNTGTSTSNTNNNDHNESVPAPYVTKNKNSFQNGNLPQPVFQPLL
In short: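 GST-tagged yeast TFs (full-length or DNA-binding domain) were made by PURExpress in vitro transcription/translation and applied at about 100-200 nM to universal all-10-mer Agilent arrays. The arrays were made double-stranded by primer extension, on fresh or once-stripped slides. Bound protein was detected with fluorescent anti-GST, and scans were normalised with masliner. Each ungapped eight-base word, pooled with its reverse complement, received an E-score (modified Wilcoxon-Mann-Whitney statistic) from the Universal PBM Analysis Suite.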

Sequence	PBM E-score
ACCTTTAC	-0.0489
CGCGCCCA	0.0957
TAACTTAA	-0.0326
TATCAACA	0.172
ACGGCTAA	0.0235
GCAGTCGA	-0.0468
AGAGTGTC	0.143
ATATGCAT	0.0389
CAGGTCCC	-0.115
AGCACATG	0.251
GTATAGTA	0.179
CTCAAAGA	-0.331
ACAGAAAG	0.0139
GGGGCCAC	-0.101
GCCGGCAC	0.133
GGATGCAC	-0.144
AGTTGGTC	0.0881
ATTCGAAA	-0.0973
CAAGGAGA	-0.227
AAAACGAT	0.0301
CCGAACCG	0.0169
AGCGACAT	-0.0124
ATTATACA	0.00881
ACGCTCGG	0.0862
AACGCCCT	-0.227

Sequence	PBM E-score
CGGAGGAG	-0.125
CAACAGCG	-0.151
CAAATCGC	-0.178
GAGGGACC	-0.221
CTTAAGTC	-0.188
ATCTAAGA	-0.0227
ACGTAACA	0.0288
GGACCGAA	-0.0967
AAGGGAAC	-0.24
ACGGCCGT	-0.0304
CTTGCGGA	-0.142
ATGTGTGC	0.12
CATAACGA	0.0162
TAGTGCAA	-0.0998
CGCAATAA	0.0361
ACATATAA	0.0819
GTTAGCCA	0.0686
AACTACGT	0.0216
ATTACAGG	0.126
ATGACAGA	-0.0366
GTGCAAGA	-0.11
ACTCACAT	0.286
ATTATTCC	0.114
ACCGTTCA	-0.0238
ACGCAGAC	0.124

Sequence	PBM E-score
ATGGGTGG	0.242
ATGTGACG	-0.152
GAAAGTGC	-0.34
CTTTAAGA	0.0444
GAGCGACA	0.0659
GCTGAGCA	0.149
GCCCGCCC	0.137
GTTAACCA	0.217
CACAGTAA	0.198
CGGTATGC	-0.197
AGACACAG	0.0391
CACCACGA	0.187
ACGGCATG	-0.124
CAGTATGA	0.187
AAAATAAT	0.0747
AGTCCGGA	0.0589
AGTAGCGA	-0.0162
CCAATAAA	0.0312
GACCTGTA	-0.159
CTGGTTGA	-0.0118
GGAAGCTA	-0.0458
GTAGCTGA	0.0569
CGAAGGTA	-0.138
GCACAGAC	0.0685
ACATTTGG	-0.0663

Sequence	PBM E-score
ATAAAGGA	-0.163
AAAAGAAC	-0.0263
CTCGATAA	0.0897
CCCCGTCG	0.119
AGACACAT	0.0642
CACCCGGC	-0.0627
GTCCGGAC	0.273
CTCGCCAG	-0.0364
GTTCCAAC	0.0451
ACTCGCTG	0.0751
ACCTCAGG	-0.0862
ACCAATCG	0.0254
AGAATGAC	0.0751
CAGAGGCG	-0.162
AAGTGAAT	0.103
CAGTCTTC	0.0148
TAGTTACA	0.0393
GCGGACAA	0.185
AAGAGTTG	-0.154
AGTATGCA	0.203
CACTCGAA	-0.0827
CTCTACCA	-0.0404
AGTAGTGA	0.106
AGAGGGAT	-0.237
AGGGAGGG	0.187

Sequence	PBM E-score
GGCTATCA	-0.0805
CTCTCGAA	-0.142
GTGAACTA	-0.229
CGGAAGAG	-0.151
GGATATGA	0.289
AAAAATAC	-0.0592
ACAAACTC	0.0515
ACCTACGG	-0.174
CGTATACG	0.107
AACTAGAC	0.0785
AGCTCGAG	-0.0247
GAATTTCC	-0.0327
ATCAGGCC	-0.0546
GAGCGCAC	-0.232
GTCATATA	0.0663
AAGTCGGA	-0.0236
AATCAGAT	0.0903
TGCCGCCA	-0.0689
GAAGGAAC	-0.159
GTGAGAGA	-0.13
ACGTGACC	-0.057
ACCCTGAG	0.0716
GACGCACA	0.171
ATAACTAG	0.199
CTATGATC	0.112

Sequence	PBM E-score
ACACCTCA	-0.0388
ACCGGCTC	0.0386
ACTCTCGG	0.0854
TCCGAAAA	-0.138
GAATCGGC	0.122
CAAAGACC	-0.122
CACCCATA	0.24
GATGGACA	-0.00521
CCAGGTTA	-0.0596
GTTCAAAA	-0.144
CGATACTA	0.0919
AGCTTCGG	-0.00502
ATGATTGC	0.345
CACTATCG	0.135
TGATGGCA	-0.0903
CTCCGCAA	-0.202
AGAAGATA	-0.193
CGTTTATA	0.0653
CCATTAAA	0.0108
CACTGGCC	-0.00647
CCTCGAGG	0.156
CTTCCGGC	-0.018
GATAAGCA	-0.0689
ACGCAGCA	-0.105
AGGCACAC	0.0154

Sequence	PBM E-score
CATCTGAG	0.0945
AGGGGTGC	-0.0271
AGACGAGC	-0.271
GCCTCCAA	-0.0917
GCCGGAGA	-0.00869
CTGCGCTA	-0.157
CCATGACG	0.0813
ACCGCTTG	0.0324
CAACGGGA	0.0707
CGACATCC	-0.00659
ACGTTCTA	-0.0882
AAGGCAAA	-0.121
AGATTTCC	-0.0412
CTGGTCTA	-0.205
GCCGACTA	0.27
AGTAGAAT	-0.0247
TCGCGAAA	0.0628
TACGAGAA	-0.146
CCGCATCG	0.0419
TGAAATAA	-0.158
CTAAAATC	-0.189
GCTTTTAA	-0.283
AACAGGAG	-0.0391
CGCGTGAC	0.162
GTGGTACA	0.071

Sequence	PBM E-score
ACTAATCT	0.174
CATCCGCC	0.126
AGGCTGGA	-0.0974
ACACGATC	0.171
CCGTCATC	-0.0774
ATGATTCA	0.443
AGATTAGA	-0.213
GAGCTGCA	-0.089
AAGTTCGT	-0.204
ATGACCTA	0.0857
CGCGCCCC	0.0171
GAATACCC	0.00311
CTTTATAC	-0.161
CGCCAGAC	0.123
ACAAGTAA	-0.0815
CAGACTCC	-0.0111
CTTATAGA	0.0141
TAAGTCAA	-0.122
GACAATCC	0.0934
AAGCAAGA	-0.0587
ACCATTGA	-0.00061
AATCAGTC	0.232
CAGACCGC	0.194
ACTATCAG	0.156
CACATTCA	0.0456

Sequence	PBM E-score
CCAAAAAC	0.0817
AGATCTCG	0.0372
CAATTGGA	0.0632
ATGGTTTC	0.218
ACCGGGCG	0.0842
ATGCTAGC	-0.0011
AGTACTGA	0.188
CGAATAAG	0.0236
CAACACGA	0.205
CAAGTCCA	-0.222
AACGCAAG	-0.179
CGGCCCGA	0.166
CAACCCCC	-0.127
GCCTACGA	0.0412
ACCACGCC	-0.0986
TCGACCGA	-0.156
GTATCGTA	-0.012
ACGAAACG	-0.0408
CACTCAAC	0.0922
GGTGGATA	0.0996
TAGATAAA	0.0361
CGCTCGAA	-0.201
GACAAGTA	0.0217
ACAAACCG	0.0394
AAACCACA	0.248

Sequence	PBM E-score
AGAGCTTC	-0.232
AGGTCCTG	-0.0314
CCGTTTTA	0.015
CCAATTGG	-0.0857
GACTAACC	0.247
GCTGCTTA	-0.0886
ACATAGTG	0.314
ATTCACTG	-0.0337
AGCGTGCA	0.0784
CTAATGGC	-0.0956
CGGTGGGA	0.151
CCCACAAC	-0.0836
ATAGGCCA	-0.159
AAAACTCT	-0.22
CACTCGCA	0.0722
AGACGTCC	-0.106
ATCTGAAA	-0.0672
CCCTGTAG	-0.135
CACCGGGG	-0.0793
GATACTGC	0.188
ATGCAGCG	-0.0944
AAAACGAC	-0.0474
AGAATAGG	0.026
AGAGGATA	-0.168
ATGATCCG	0.0961

Sequence	PBM E-score
AGTGGTAC	-0.0391
CCTGCCAG	-0.23
ACGTTCCG	-0.257
GTTCCGGA	0.0125
AATCCTAT	0.1
CCAGGTTC	-0.14
CCCAATCC	0.0155
CCATCAGC	0.0127
GGAGACAA	0.151
CTTTCCTC	-0.244
GCGACCCA	0.116
CCCCCCGC	-0.0279
GGCAGGCC	-0.214
GCTGTGCA	-0.0963
CAAAGGTG	0.136
GGCCAGCA	-0.0819
CAAGGGAG	-0.00031
AAGCCGGT	-0.0262
GCGGGAGC	-0.0214
ATCCCCAT	0.115
ATGTATGC	0.181
CCGTACGC	-0.0297
ATCTAATA	0.0551
CCCCATCA	-0.0252
CAGCTATC	-0.172

Sequence	PBM E-score
ACTAGACA	0.148
CGTAGATC	-0.0658
TATTGTGA	0.209
AGCTTCGC	-0.223
CGTCCTAG	-0.181
AAAGACTA	-0.109
CTAGGGAC	-0.0696
CAGCCATA	0.0673
CACAGAAC	-0.0765
GTGTCTCA	0.237
AAGTCTGA	-0.293
CGAGGCCG	-0.21
CCACATGG	0.0595
CACGTGTA	0.0359
GACATCTA	0.0767
AGGAGAAG	-0.156
CTTGTCAA	-0.108
AATAATAT	0.183
AGCCATTC	-0.00524
AGTACGAC	0.183
ACGCGAGC	0.0179
AGCTGTTG	-0.0227
TCGAGTAA	0.0538
AGGCGCCT	0.00322
ATGAGAAG	-0.0895

Sequence	PBM E-score
ACGGGGAT	0.03
AACGAATA	-0.129
CACCCTCG	0.0603
GCAGTAGC	-0.238
TTGGAAAA	-0.27
AGGCAATA	-0.0641
CTTGGGTC	0.0407
GAGGTCCA	0.00961
CAAACTGG	0.0525
CATATCAA	0.278
GGCCCCAA	-0.251
CGCTAGGC	-0.19
AAGATAGA	-0.104
CAGGTATA	0.0578
ACTTGCGG	-0.185
ACCAGCTG	0.0657
TACGTACA	0.127
AAGTCAGG	0.201
CCTTATCG	-0.0198
GCTTCGCC	-0.349
AGGTACGC	0.164
AGCCGAAT	0.142
AACGCTGG	0.0312
ACGTATTC	0.036
CCATAGGA	-0.0888

Sequence	PBM E-score
TCCAGGAA	0.00501
AAATTCAG	-0.0308
CACCCAAA	0.136
ACCAATAA	-0.0166
CTGCGTAA	-0.0215
CTTTTGCA	-0.101
TCCCCTAA	-0.0509
TCGCAAGA	-0.036
CTTGACGC	-0.183
GTCGGAGA	0.0527
ACTGCTGC	0.0846
ATCCAGAG	0.113
GTGCAAAA	-0.15
AGTCAGCG	0.347
GAACCACC	0.225
AGGAGACC	0.0147
CGTGTGCC	-0.0318
GCAGCCCC	0.0417
ATGGCGCG	-0.108
